# Measurements as given in the supplement of paper PMC12645437, “Orthogonal IMiD-Degron Pairs Induce Selective Protein Degradation in Cells” (ACS Chemical Biology, 2025).
# Some of the results follow.
# Biological target: no compound (DMSO)
# Assay: log2 fold change of degron read counts, EGFP-low vs EGFP+ sorted cells; higher = lower degron-EGFP level without compound (poor expression or instability)
# Details: compound: DMSO control; 18 h
# 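Also: jurkat cells carrying a lentiviral library of mutant zinc finger degrons fused to EGFP plus mCherry, mCherry+ cells FACS sorted, degron abundance counted by next-generation sequencing.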
row,Sequence,log2 fold change of degron read counts
1,FRCNVCGADFTQKGNLLRHIKL,-0.319
2,FCCDQCGAQFTQKGNLLRHIKL,-1.82
3,FQCDICGALFTQKGNLLRHIKL,-1.72
4,LVCNQCGFHCTQKGNLLRHIKL,-0.233
5,FLCEICGHSFTQKGNLLRHIKL,-2.1
6,FYCNQCGHLFTQKGNLLRHIKL,0.902
7,FNCEICGATFTQKGNLLRHIKL,-1.63
8,FKCSVCGHPFTQKGNLLRHIKL,0.273
9,FHCDVCGAMFTQKGNLLRHIKL,-1.26
10,LNCNQCGFICTQKGNLLRHIKL,1.15
11,FQCNQCGAWFTQKGNLLRHIKL,-0.931
12,FNCPQCGAWFTQKGNLLRHIKL,-0.107
13,FWCNQCGRIFTQKGNLLRHIKL,2.04
14,FQCEICGRSFTQKGNLLRHIKL,-1.18
15,FKCEICGADFTQKGNLLRHIKL,-3.6
16,FQCNQCGAAFTQKGNLLRHIKL,-1.7
17,FMCDICGAYFTQKGNLLRHIKL,-0.652
18,FFCNICGAFFTQKGNLLRHIKL,1.19
19,FSCEICGAWFTQKGNLLRHIKL,-0.914
20,FICSVCGHYFTQKGNLLRHIKL,0.255
21,FTCEVCGAIFTQKGNLLRHIKL,-1.64
22,FCCPQCGAIFTQKGNLLRHIKL,-0.0876
23,FICSVCGHQFTQKGNLLRHIKL,-1.64
24,FRCPICGRLFTQKGNLLRHIKL,0.267
25,LGCNQCGFACTQKGNLLRHIKL,1.01

row,Sequence,log2 fold change of degron read counts
1,FTCPQCGAIFTQKGNLLRHIKL,-0.768
2,FECNQCGRPFTQKGNLLRHIKL,-0.992
3,LHCEICGFRCTQKGNLLRHIKL,-0.207
4,FQCPVCGAVFTQKGNLLRHIKL,0.126
5,FKCDQCGASFTQKGNLLRHIKL,-2.05
6,LHCNQCGFICTQKGNLLRHIKL,0.906
7,FICEICGRLFTQKGNLLRHIKL,-0.39
8,FQCPVCGAMFTQKGNLLRHIKL,0.115
9,FTCEQCGAYFTQKGNLLRHIKL,-0.909
10,FRCPVCGATFTQKGNLLRHIKL,-1.04
11,FMCNICGARFTQKGNLLRHIKL,-0.236
12,FFCPQCGATFTQKGNLLRHIKL,-0.0669
13,FKCEQCGAGFTQKGNLLRHIKL,-2.33
14,FECNQCGRSFTQKGNLLRHIKL,-0.78
15,FECNICGAVFTQKGNLLRHIKL,-1.13
16,FDCSVCGHKFTQKGNLLRHIKL,-0.107
17,FMCEICGHHFTQKGNLLRHIKL,-1.59
18,FKCNVCGAPFTQKGNLLRHIKL,0.12
19,FKCNQCGHFFTQKGNLLRHIKL,-0.622
20,FWCNQCGHNFTQKGNLLRHIKL,1.4
21,FKCDQCGAGFTQKGNLLRHIKL,-1.56
22,FNCEICGAFFTQKGNLLRHIKL,-0.835
23,LYCEICGFLCTQKGNLLRHIKL,1.51
24,FKCPQCGAPFTQKGNLLRHIKL,-1.86
25,FECEICGRIFTQKGNLLRHIKL,-1.68
